Measurements published in paper PMC5834211.
No constants are given. Whether binding was seen depends on the method and setting. In cells and extracts the contact can be indirect. Where a sequence is shown, tags or fusion partners need not be part of it.

Tests used:
[1] = target: T1, HA-DHX29c [530-1369 aa] (human) (UniProt Q7Z478); experiment: co-IP; 293T cells cotransfected; whole cell lysates immunoprecipitated with anti-HA beads, immunoblotted with anti-Flag (Fig 5A, Fig 6A); also in RIG-I knockout 293T cells (S5D Fig)
T1 sequence: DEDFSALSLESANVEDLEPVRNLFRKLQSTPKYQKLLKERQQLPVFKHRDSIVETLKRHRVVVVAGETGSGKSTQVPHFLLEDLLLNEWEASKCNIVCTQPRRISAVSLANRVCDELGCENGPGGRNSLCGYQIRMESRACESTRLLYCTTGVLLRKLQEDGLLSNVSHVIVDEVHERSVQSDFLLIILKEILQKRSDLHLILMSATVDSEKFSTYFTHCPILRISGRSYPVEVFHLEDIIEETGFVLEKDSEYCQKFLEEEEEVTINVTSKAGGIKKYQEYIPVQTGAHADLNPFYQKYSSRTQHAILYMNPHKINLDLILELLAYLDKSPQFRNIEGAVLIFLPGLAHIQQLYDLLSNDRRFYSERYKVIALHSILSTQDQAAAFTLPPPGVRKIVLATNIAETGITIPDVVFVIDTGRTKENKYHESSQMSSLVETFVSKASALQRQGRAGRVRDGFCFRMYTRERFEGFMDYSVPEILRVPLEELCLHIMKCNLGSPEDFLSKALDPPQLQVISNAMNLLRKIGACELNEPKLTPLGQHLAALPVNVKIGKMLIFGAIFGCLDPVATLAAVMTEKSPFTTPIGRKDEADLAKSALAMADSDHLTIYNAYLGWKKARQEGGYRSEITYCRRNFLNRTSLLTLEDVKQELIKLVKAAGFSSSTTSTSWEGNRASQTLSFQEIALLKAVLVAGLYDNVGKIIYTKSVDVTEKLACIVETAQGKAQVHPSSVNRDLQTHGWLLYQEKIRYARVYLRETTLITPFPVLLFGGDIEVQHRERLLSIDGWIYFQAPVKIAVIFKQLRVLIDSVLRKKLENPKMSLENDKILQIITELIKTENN

[2] = target: T2, HA-DHX29d [830-1369 aa] (human) (UniProt Q7Z478); experiment: as above
T2 sequence: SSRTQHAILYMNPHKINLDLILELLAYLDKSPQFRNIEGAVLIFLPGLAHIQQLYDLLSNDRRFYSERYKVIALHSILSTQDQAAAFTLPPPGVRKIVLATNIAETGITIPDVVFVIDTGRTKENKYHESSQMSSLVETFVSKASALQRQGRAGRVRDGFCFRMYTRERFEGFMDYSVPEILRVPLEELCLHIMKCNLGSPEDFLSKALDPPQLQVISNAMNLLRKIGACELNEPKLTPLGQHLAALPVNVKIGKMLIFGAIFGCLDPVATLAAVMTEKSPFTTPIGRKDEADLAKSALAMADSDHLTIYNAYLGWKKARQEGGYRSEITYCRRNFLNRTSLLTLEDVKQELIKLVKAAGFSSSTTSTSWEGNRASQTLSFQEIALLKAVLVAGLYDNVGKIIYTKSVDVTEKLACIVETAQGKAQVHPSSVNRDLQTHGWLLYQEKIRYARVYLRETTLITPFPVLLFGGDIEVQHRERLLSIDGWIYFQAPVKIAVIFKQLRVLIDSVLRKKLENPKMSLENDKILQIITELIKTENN

B1: Flag-MDA5 (full-length, FL-MDA5) (protein, UniProt Q9BYX4 1-1025)
chain: MSNGYSTDENFRYLISCFRARVKMYIQVEPVLDYLTFLPAEVKEQIQRTVATSGNMQAVELLLSTLEKGVWHLGWTREFVEALRRTGSPLAARYMNPELTDLPSPSFENAHDEYLQLLNLLQPTLVDKLLVRDVLDKCMEEELLTIEDRNRIAAAENNGNESGVRELLKRIVQKENWFSAFLNVLRQTGNNELVQELTGSDCSESNAEIENLSQVDGPQVEEQLLSTTVQPNLEKEVWGMENNSSESSFADSSVVSESDTSLAEGSVSCLDESLGHNSNMGSDSGTMGSDSDEENVAARASPEPELQLRPYQMEVAQPALEGKNIIICLPTGSGKTRVAVYIAKDHLDKKKKASEPGKVIVLVNKVLLVEQLFRKEFQPFLKKWYRVIGLSGDTQLKISFPEVVKSCDIIISTAQILENSLLNLENGEDAGVQLSDFSLIIIDECHHTNKEAVYNNIMRHYLMQKLKNNRLKKENKPVIPLPQILGLTASPGVGGATKQAKAEEHILKLCANLDAFTIKTVKENLDQLKNQIQEPCKKFAIADATREDPFKEKLLEIMTRIQTYCQMSPMSDFGTQPYEQWAIQMEKKAAKEGNRKERVCAEHLRKYNEALQINDTIRMIDAYTHLETFYNEEKDKKFAVIEDDSDEGGDDEYCDGDEDEDDLKKPLKLDETDRFLMTLFFENNKMLKRLAENPEYENEKLTKLRNTIMEQYTRTEESARGIIFTKTRQSAYALSQWITENEKFAEVGVKAHHLIGAGHSSEFKPMTQNEQKEVISKFRTGKINLLIATTVAEEGLDIKECNIVIRYGLVTNEIAMVQARGRARADESTYVLVAHSGSGVIEHETVNDFREKMMYKAIHCVQNMKPEEYAHKILELQMQSIMEKKMKTKRNIAKHYKNNPSLITFLCKNCSVLACSGEDIHVIEKMHHVNMTPEFKELYIVRENKALQKKCADYQINGEIICKCGQAWGTMMVHKGLDLPCLKIRNFVVVFKNNSTKKQYKKWVELPITFPNLDYSECCLFSDED
[1]
  binding: no binding
[2]
  binding: no binding
